Substitutions are numbered along the chain they refer to. No constants are given. Whether binding was seen depends on the method and setting. In cells and extracts the contact can be indirect.

The chains behind the UniProt entries cited, without tags or fusion partners.
UniProt Q9NVP2: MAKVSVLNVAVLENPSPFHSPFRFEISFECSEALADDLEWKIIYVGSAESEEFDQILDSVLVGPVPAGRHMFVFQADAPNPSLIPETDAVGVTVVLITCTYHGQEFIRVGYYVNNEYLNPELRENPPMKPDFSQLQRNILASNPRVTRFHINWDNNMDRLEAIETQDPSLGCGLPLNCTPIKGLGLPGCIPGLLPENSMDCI

The source of these data is paper PMC11911400, “Mechanism of ASF1 engagement by CDAN1” (Nature Communications, 2025).

The target of test [1] is T1, Strep-CDAN1 HMHA1* BDA1* BDA2* (three elements mutated) (human) (UniProt Q8IWY9).
T1 sequence: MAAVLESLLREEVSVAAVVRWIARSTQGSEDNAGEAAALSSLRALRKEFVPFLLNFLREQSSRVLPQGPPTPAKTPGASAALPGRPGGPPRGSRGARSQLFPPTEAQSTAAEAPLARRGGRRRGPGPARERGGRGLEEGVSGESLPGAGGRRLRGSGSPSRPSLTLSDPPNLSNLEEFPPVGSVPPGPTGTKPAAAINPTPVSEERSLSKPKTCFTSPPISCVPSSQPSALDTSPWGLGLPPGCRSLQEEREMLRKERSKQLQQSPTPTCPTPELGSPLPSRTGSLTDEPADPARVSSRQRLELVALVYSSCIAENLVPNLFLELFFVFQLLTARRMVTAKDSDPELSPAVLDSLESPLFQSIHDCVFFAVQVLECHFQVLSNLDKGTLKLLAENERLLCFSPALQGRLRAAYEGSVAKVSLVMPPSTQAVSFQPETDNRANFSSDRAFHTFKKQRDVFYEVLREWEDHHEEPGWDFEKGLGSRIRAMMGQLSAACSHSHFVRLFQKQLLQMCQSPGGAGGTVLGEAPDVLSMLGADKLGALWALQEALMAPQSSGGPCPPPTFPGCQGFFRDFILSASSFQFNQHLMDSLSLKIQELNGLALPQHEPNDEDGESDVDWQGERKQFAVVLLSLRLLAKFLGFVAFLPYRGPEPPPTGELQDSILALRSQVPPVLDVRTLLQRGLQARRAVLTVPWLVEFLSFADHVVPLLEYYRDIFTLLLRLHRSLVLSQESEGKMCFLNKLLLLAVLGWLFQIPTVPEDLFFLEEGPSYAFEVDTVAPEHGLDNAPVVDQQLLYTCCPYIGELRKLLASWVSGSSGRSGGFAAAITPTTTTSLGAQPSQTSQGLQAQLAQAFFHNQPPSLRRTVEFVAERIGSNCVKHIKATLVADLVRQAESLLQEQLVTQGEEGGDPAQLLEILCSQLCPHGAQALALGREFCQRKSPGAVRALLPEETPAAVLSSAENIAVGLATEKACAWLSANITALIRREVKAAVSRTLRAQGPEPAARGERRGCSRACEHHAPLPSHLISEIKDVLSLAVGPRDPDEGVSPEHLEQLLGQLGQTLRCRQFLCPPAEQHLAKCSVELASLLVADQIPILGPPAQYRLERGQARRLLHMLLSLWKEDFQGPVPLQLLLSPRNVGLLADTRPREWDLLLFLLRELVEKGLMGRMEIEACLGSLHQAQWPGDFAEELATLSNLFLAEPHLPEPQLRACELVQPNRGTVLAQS
The experiment in a line: pull-down; Strep-Tactin pulldown of transiently transfected ST-CDAN1 variants from Flp-In 293 T-REx lysates; endogenous ASF1A, ASF1B and CDIN1 detected by immunoblotting; IP buffer with 1% Triton X-100, 1 hr at 4 °C. A general note: In western blotting, separated proteins are transferred to a membrane and probed.

Test [2] concerns the target T2, Strep-CDAN1 HMHA1* HMHA2* BDA2* (three elements mutated) (human) (UniProt Q8IWY9).
T2 sequence: T1 sequence with R251A, R255A, R258A, A824M, A825R, A826K
Described as above.

In the case of “endogenous ASF1B (from UniProt Q9NVP2 1-202)”, the binding result in test [1] and in test [2] was “no binding” throughout.
